Several values for one entry are separate records, joined by “and”; a condition that tells them apart may be missing. Identical values can stand only once. Hit rate of the full screen: of about 220,000 compounds, about 5,700 (2.6%) were called active. The shares of active, inactive and inconclusive entries below differ from those in the screen. Calls come from the whole dose curve; as a rule, active = well fitted inhibition curve with a large enough effect; inconclusive = small, poorly fitted or top-dose-only effect; inactive = no such curve, though single readings can be large or run the other way. A potency beside an inconclusive call is a rough fit, not a confirmed value.
These compounds were tested against Lysine-specific demethylase 5B (Homo sapiens) (UniProt Q9UGL1) (assay: Primary screen for KDM5B Histone Demethylases FDH-coupled qHTS). Conditions: FDH-coupled NADH fluorescence (FDH is formaldehyde dehydrogenase); activity change, negative = inhibition: at 57.7 µM (top of the series) unless noted.
UniProt Q9UGL1, sequence (Q9UGL1 whole entry, looked up): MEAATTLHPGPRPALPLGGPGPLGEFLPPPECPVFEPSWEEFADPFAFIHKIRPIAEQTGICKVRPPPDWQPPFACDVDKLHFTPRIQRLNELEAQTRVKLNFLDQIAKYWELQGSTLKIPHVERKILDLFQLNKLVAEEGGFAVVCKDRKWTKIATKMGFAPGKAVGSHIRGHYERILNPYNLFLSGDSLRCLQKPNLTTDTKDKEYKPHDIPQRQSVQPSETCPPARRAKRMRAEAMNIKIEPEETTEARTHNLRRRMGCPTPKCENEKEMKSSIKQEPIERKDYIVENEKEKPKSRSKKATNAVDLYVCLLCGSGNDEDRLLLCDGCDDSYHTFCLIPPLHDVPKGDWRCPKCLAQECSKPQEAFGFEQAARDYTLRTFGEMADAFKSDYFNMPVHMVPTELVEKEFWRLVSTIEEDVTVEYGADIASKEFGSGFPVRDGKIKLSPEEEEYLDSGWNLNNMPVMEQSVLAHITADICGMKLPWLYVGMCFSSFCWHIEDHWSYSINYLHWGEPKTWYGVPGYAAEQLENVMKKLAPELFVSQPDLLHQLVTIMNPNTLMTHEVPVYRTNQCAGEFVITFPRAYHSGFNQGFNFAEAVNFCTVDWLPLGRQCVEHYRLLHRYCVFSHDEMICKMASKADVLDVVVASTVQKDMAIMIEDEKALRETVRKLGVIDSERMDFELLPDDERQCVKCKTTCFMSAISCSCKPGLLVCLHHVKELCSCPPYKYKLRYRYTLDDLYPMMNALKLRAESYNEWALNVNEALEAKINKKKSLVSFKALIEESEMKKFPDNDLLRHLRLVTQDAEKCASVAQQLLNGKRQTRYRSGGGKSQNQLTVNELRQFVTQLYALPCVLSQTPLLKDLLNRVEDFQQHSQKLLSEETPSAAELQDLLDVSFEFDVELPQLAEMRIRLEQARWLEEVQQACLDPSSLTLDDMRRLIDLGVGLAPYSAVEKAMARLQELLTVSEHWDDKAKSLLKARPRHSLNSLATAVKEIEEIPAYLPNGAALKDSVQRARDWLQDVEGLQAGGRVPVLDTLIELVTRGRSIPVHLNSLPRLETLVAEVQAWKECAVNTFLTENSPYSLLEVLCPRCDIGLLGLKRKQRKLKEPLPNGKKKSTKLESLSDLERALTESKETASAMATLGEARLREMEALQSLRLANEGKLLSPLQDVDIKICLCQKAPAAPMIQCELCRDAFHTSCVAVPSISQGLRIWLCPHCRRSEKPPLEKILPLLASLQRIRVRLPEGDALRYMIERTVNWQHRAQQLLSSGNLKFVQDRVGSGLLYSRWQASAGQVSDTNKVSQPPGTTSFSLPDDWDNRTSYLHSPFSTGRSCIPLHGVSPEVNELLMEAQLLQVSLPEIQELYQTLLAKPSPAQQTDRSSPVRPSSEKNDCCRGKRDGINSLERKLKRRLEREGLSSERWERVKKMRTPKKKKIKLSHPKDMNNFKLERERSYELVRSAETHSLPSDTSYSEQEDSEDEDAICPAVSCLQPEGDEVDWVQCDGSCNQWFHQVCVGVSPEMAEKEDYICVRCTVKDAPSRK
Summary of the method: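 Measured: NADH fluorescence change, 30 min, RT. System: KDM5BΔAP 200 nM final, H3K4me3 peptide, α-KG, Fe(II), ascorbate, NAD⁺ plus FDH, pH 7.5 HEPES. Compounds: titrated, 10 min pre-incubation with enzyme.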
With `COc1ccc(OC)c(NC(=O)N2CCN(c3ccc(=O)n(-c4ccccc4)n3)CC2)c1` the Potency was “inactive”.
`CCNc1cc(N2CCN(C3CCCCC3)CC2)c2noc3c2c1C(=O)c1ccccc1-3` was tested, and the Potency was inconclusive: 17.8 µM [inhibitor, partial curve, poor fit].
With `O=C(NCCc1ccc(Cl)cc1)C1CCc2nnc(C3CCN(C(=O)C4CC4)CC3)n21` (stereo not drawn) the Potency was “inactive”.
`CCN(CC)c1nc2ccccc2nc1C(=O)Nc1ccccc1Cl` was tested, and the Potency was “inactive”.
`Cc1oc2cc(OCCN3CCC(C)CC3)ccc2c(=O)c1-c1ccccc1` was tested, and the Potency was “inactive”.
With `Cc1ccc(N2C(=O)N(Cc3cc(=O)n4ccccc4n3)c3ccccc3S2(=O)=O)cc1Cl` the Potency was inconclusive: 39.8 µM [inhibitor, partial curve, poor fit].
With `CCOc1ccccc1CNC(=O)Cn1cc2c(n1)-c1c(oc(C(=O)N3CCCC3)c1C)CC2` the Potency was inconclusive: 3.16 µM [inhibitor, full curve, poor fit].
`CCOP(=O)(OCC)c1nc(Cc2ccccc2)oc1NCc1ccc2c(c1)OCO2` was tested, and the Potency was “inactive”.
For `COc1ccc(Cl)cc1/C=C/c1ccc2cccc(O)c2n1`, the Potency was inconclusive: 20 µM [inhibitor, partial curve, poor fit].
With `Cc1cc2nc(/C=C/c3cccc(O)c3)sc2cc1C` the Potency was “inactive”.
For `COC(=O)C1=C(C)N=C2SC=C(CC(=O)NC3CCCCC3)N2C1c1ccsc1` (stereo not drawn), the Potency was inconclusive: 31.6 µM [inhibitor, partial curve, poor fit].
For `C=CCN(CCSc1ccccc1)C(=O)c1cnc(NCC)nc1`, the Potency was inconclusive: 10 µM [inhibitor, partial curve, poor fit].
With `COc1ccc(S(=O)(=O)NCCNc2cc(C)nc3ccnn23)cc1` the Potency was active: 28.2 µM.
`CCOC(=O)CN1CCN(c2nc3c(c(=O)[nH]c(=O)n3C)n2Cc2ccccc2F)CC1` was tested, and the Potency was “inactive”.
For `N#Cc1cccc(Oc2ccccc2-c2ccccc2Oc2cccc(C#N)c2C#N)c1C#N`, the Potency was inconclusive: 31.6 µM [inhibitor, single point].
With `Cn1ccc(C(=O)N[C@@H]2COCC[C@H]2Oc2ccc(CO)cc2)cc1=O` the Potency was inconclusive: 31.6 µM [inhibitor, partial curve, poor fit].
For `Cc1nn(CC(=O)NC(C)(C)C)c(C)c1S(=O)(=O)N1CCCC(C(=O)N2CCCCC2)C1` (stereo not drawn), the Potency was “inactive”.
For `CCN(CC)Cc1cc(C(=O)N2Cc3[nH]cnc3CC2C(=O)O)c(C)o1` (stereo not drawn), the Potency was inconclusive: 12.6 µM [inhibitor, single point].
With `Cc1ccc([N+](=O)[O-])cc1S(=O)(=O)N1CCn2cccc2C1c1ccccc1` (stereo not drawn) the Potency was inconclusive: 25.1 µM [inhibitor, partial curve, poor fit].
In the case of `CCOc1ccc(-n2nc(CO)c(C(=O)NCc3cccs3)n2)cc1`, the Potency is reported as inconclusive: 35.5 µM [inhibitor, partial curve, poor fit].
`Cc1cccc(-c2noc(C(C)NC(=O)c3ccco3)n2)c1` (stereo not drawn) was tested, and the Potency was “inactive”.
`COc1ccc(-c2cc(C(=O)O)c3ccc(C)c(C)c3n2)cc1OC` was tested, and the Potency was inconclusive: 28.2 µM [inhibitor, single point].
For `Cn1ccc(NC(=O)c2cc(-c3ccccc3F)cc3c2OCCN3Cc2cccnc2)n1`, the Potency was active: 28.2 µM.
`Nc1cnc(-c2cccnc2)nc1` was tested, and the Potency was inconclusive: 17.8 µM [inhibitor, partial curve].
`CCc1cccc(C)c1NC(=O)CCn1c(=O)c2cccn2c2ccccc21` was tested, and the Potency was inconclusive: 35.5 µM [inhibitor, single point].
In the case of `CC(C)C(=O)NCC1(N(C)C)CCCCC1`, the Potency is reported as inconclusive: 35.5 µM [inhibitor, single point].
For `Fc1cccc(OCc2nnc(-c3ccc(Br)cc3)o2)c1`, the Potency was “inactive”.
For `COc1ccc(OC)c(Nc2nc(NCC(C)O)nc3c2cnn3-c2ccccc2)c1` (stereo not drawn), the Potency was inconclusive: 39.8 µM [inhibitor, single point].
In the case of `CCC(=O)Nc1ccc2oc(-c3cccnc3)nc2c1`, the Potency is reported as inconclusive: 28.2 µM [inhibitor, partial curve, poor fit] and inconclusive: 25.1 µM [inhibitor, partial curve, poor fit].
For `Cc1ccc(-c2cc(C(=O)N(Cc3ccc(C(C)(C)C)cc3)Cc3ccco3)no2)cc1`, the activity change, negative = inhibition was inconclusive: -37.9% [inhibitor].
With `CC1(c2ccccc2)NC(=O)N(CC(=O)Nc2ccc(C(N)=O)cc2)C1=O` (stereo not drawn) the activity change, negative = inhibition was inconclusive: -36.8% [inhibitor].
With `CC1(CNCc2ccccc2)COc2ccc(C(=O)NCc3ccncc3)cc2N1` (stereo not drawn) the Potency was inconclusive: 31.6 µM [inhibitor, single point].
In the case of `COc1ccc(C(=O)N2CCN(c3cc(-c4cccs4)[nH]n3)CC2)cc1OC`, the Potency is reported as inconclusive: 22.4 µM [inhibitor, single point].
In the case of `Fc1ccc(-n2ncc3c(N4CCCCCC4)ncnc32)cc1`, the Potency is reported as inconclusive: 1 µM [inhibitor, partial curve, poor fit].
With `Cn1cc([C@@H](NC(=O)c2n[nH]c3c2CCC3)C2CC(O)C2)cn1` (stereo partly drawn) the Potency was “inactive”.
For `CC(C)CNc1ccc2c(n1)C(C)(C(=O)NC1COC1)CN(Cc1ccccc1)C2` (stereo not drawn), the Potency was active: 31.6 µM.
With `Cc1ccc(Cl)cc1-n1ncc2c(NCCCc3ccccc3)ncnc21` the Potency was inconclusive: 15.8 µM [inhibitor, partial curve, poor fit].
With `O=C(C1CCCC1)N1CCCC1c1nc(C2CCOCC2)no1` (stereo not drawn) the Potency was inconclusive: 25.1 µM [inhibitor, single point].
For `Cc1nc(-c2ccccc2)n(Cc2ccc(F)cc2Cl)c(=O)c1CCO`, the Potency was “inactive”.
For `O=C(CSCc1ccccc1)NNC(=S)NC1CC1`, the Potency was “inactive”.
In the case of `COc1ccc(OC)c(C(=O)COC(=O)CCSc2ccccc2Cl)c1`, the Potency is reported as “inactive”.
For `Cc1cccc(-c2cccc3c4c([nH]c23)[C@@H]2C[C@H](N(C)C(=S)NCCc3ccccc3)[C@H]([C@H](C)O)CN2CC4)c1`, the Potency was inconclusive: 28.2 µM [inhibitor, partial curve, poor fit].
For `O=C(c1ccc(Cl)cc1)N1CC2(CCCN2Cc2ccc(Cl)cc2)Cc2ccccc21` (stereo not drawn), the Potency was inconclusive: 89.1 µM [inhibitor, partial curve].
Note: nearly all actives have a fitted effect of over 70% in size.
Potency is the fitted concentration of half-maximal effect; tags give direction and shape of the fitted curve.
Throughout, for activity change, negative = inhibition: 0% is about no effect.
